The record followed here is article PMC11494340, “High-throughput screening for small-molecule stabilizers of misfolded glucocerebrosidase in Gaucher disease and Parkinson’s disease” (Proceedings of the National Academy of Sciences of the …, 2024).

This experiment addresses T1, HiBiT-GCase-L444P (Homo sapiens, UniProt P04062, L483P).
T1 sequence (P04062 40-536 L483P): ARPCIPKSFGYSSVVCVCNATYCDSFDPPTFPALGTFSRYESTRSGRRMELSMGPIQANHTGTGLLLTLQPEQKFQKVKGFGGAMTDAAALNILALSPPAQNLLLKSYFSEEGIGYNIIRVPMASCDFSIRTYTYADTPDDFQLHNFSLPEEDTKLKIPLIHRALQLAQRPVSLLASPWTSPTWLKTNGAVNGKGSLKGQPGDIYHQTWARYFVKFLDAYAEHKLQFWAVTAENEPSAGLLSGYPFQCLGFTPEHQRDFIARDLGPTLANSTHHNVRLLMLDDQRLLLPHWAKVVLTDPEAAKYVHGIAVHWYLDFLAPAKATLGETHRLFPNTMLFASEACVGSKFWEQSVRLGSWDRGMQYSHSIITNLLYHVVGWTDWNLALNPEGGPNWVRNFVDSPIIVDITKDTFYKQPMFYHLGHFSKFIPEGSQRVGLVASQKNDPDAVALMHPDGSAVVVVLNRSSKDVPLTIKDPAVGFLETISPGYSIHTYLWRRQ
The arrangement: AUC: unit not given beside the values. As to conditions: follow-up screen, 24 h; for Efficacy: relative to DMSO control; for CC-v2: qHTS curve class.

Values joined by “and” are separate entries in the source; they are usually repeats but may differ in a detail not shown here. Identical values can stand only once. Counter-ions that a name gives are not always drawn.

The molecule `C[C@]12CC[C@H](O[C@@H]3O[C@H](CO)[C@@H](O)[C@H](O)[C@H]3O[C@@H]3O[C@H](CO)[C@@H](O)[C@H](O)[C@H]3O)CC1=CC[C@@H]1[C@@H]2CC[C@]2(C)[C@@H](C3=CC(=O)OC3)CC[C@]12O` [NCGC00385195-01] had an AC50 of 7 µM, an AUC of 74.1, an Efficacy of 127 and a CC-v2 of 1.1.
The matching figures for `Nc1ccccc1NC(=O)CCCCCCC(=O)Nc1ccccc1` [NCGC00263618-04, CAY10433]: 29.8 µM, 130.2, 282 and 1.1.
In the case of `CC(C)(O)c1ccc2c(c1)ncn2-c1cccc(-c2ccccc2C#N)c1` [NCGC00386556-02, NS-11394], the AC50 is 53 µM, the AUC was found to be 91.0, the Efficacy amounted to 100 and the CC-v2 amounted to 1.1.
`CN(C)Cc1c(C(=O)NCCOc2ccc(C(=O)NO)cc2)oc2ccccc12` [NCGC00346486-03, Abexinostat] displayed an AC50 of 0.335 µM, an AUC of 725.5 and a CC-v2 of 1.1.
`O=C(CCCN1CCN(c2ccc(F)cc2)CC1)NC1c2ccccc2CSc2ccccc21` (centres unmarked) [NCGC00183837-01, Monatepil] yielded an AUC of 72.4 and a CC-v2 of 2.2.
Regarding `Cc1cc(C)cc(C(=O)NOCCCCCC(=O)NO)c1` [NCGC00379210-03, LMK-235], the activity was half-maximal at 0.473 µM (AC50), the AUC was found to be 739.7, the Efficacy is 333 and the CC-v2 was found to be 1.1.
Regarding `CCCCCCc1ccc(NC(=O)CNC(=O)c2ccccc2OCC(=O)Nc2ccc(I)cc2)cc1` [NCGC00241470-01], half-maximal activity (AC50) was put at 39.8 µM, the AUC is listed as 100.5, the Efficacy was determined as 57 and the CC-v2 turned out to be 1.2.
The matching figures for `O=C(N[C@H](Cc1cscn1)C(=O)N[C@@H](CC1CCCCC1)[C@@H](O)[C@@H](O)C1CC1)c1nc2ccccc2[nH]1` [NCGC00378583-01, Ro 0437626]: 6 µM, 193.4, 207 and 1.1.
Taken in the same sequence, the figures for `O=C(NCCN1CCC(n2c(=O)[nH]c3ccccc32)CC1)c1cc2cc(F)ccc2[nH]1` [NCGC00370807-05, FIPI hydrochloride] were 9.4 µM, 7.8, 65 and 1.2.
Taken in the same sequence, the figures for `CN(C(=O)CNC(=O)c1cc(F)ccc1OCC(=O)Nc1ccc(I)cc1)c1ccc(F)cc1` [NCGC00249581-01] were 25.1 µM, 79.6, 41 and 2.4.
As for `CN(C(=O)CNC(=O)c1ccccc1OCC(=O)Nc1ccc(I)cc1)c1ccccc1` [NCGC607], half-maximal activity (AC50) was put at 14.1 µM, the AUC came to 62.8 and the CC-v2 stood at 1.2.
In the case of `O=C(CCCCCCNC(=O)c1cnc(N(c2ccccc2)c2ccccc2)nc1)NO` [NCGC00345802-05, ACY-1215], the AC50 amounted to 9.4 µM, the AUC is 330.3, the Efficacy was found to be 352 and the CC-v2 is given as 2.1.
Regarding `CN1CCc2c(n(Cc3ccc(C(=O)NO)cc3)c3ccccc23)C1` [NCGC00345786-02], the AC50 was 53 µM and 33.5 µM; the AUC is 56.3 and 40.8; the Efficacy is 277 and 169; the CC-v2 was 2.1 and 1.1.
As for `Cc1sc2c(c1C)C(c1ccc(Cl)cc1)=N[C@@H](CC(=O)Nc1ccc(O)cc1)c1nnc(C)n1-2` [NCGC00356067-04, OTX015], the AC50 came out at 1.7 µM, the AUC is reported as 165.2 and the CC-v2 stood at 1.1.
Taken in the same sequence, the figures for `Cc1c[nH]c(-c2cnc(NCCNc3ccc(C#N)cn3)nc2-c2ccc(Cl)cc2Cl)n1` [NCGC00250379-09, CT-99021] were 7.5 µM, 90.5 and 1.1.
Take `C=C1C(=O)O[C@@H]2[C@H]1CCC(C)=C1CCC(=O)O[C@]12C` [NCGC00385924-01]: the AC50 turned out to be 18.8 µM, the AUC turned out to be 18.8, the Efficacy worked out at 71 and the CC-v2 was found to be 2.2.
`COC(=O)C1=C(C)NC(COC(N)=O)=C(C(=O)OC(C)C)C1c1cccc(Cl)c1Cl` (centres unmarked) [NCGC00183830-01, Lemildipine]: the activity was half-maximal at 21.1 µM (AC50), the AUC was 116.8 and the CC-v2 came out at 2.1.
`Cc1ccc(NC(=O)CNCc2ccccc2OCC(=O)Nc2ccc(I)cc2)cc1` [NCGC00242322-01]: half-maximal activity (AC50) was put at 31.6 µM, the AUC came to 57.2, the Efficacy turned out to be 128 and the CC-v2 came out at 1.1.
Taken in the same sequence, the figures for `O=C(COc1ccccc1C(=O)NCc1ccccc1)Nc1ccc(I)cc1` [NCGC00241319-01] were 100 µM, 64.2, 80 and 2.2.
The matching figures for `Cc1ccc(NC(=O)[C@H](C)NC(=O)c2ccccc2OCC(=O)Nc2ccc(I)cc2)cc1` [NCGC00244548-01]: 89.1 µM, 154.7, 143 and 2.1.
Taken in the same sequence, the figures for `CCC(CC)C(=O)OC12C(OC(=O)C(C)C)C(C)C3(O)C(C=C(CO)CC4(O)C(=O)C(C)=CC43)C1C2(C)C` (centres unmarked) [NCGC00385607-01] were 0.0206 µM, 147.1, 53 and 1.2.
Regarding `COc1ccc(CC2C(=O)NC(C)C(=O)N(C)C3Cc4ccc(cc4)Oc4cc(ccc4OC4OC(CO)C(O)C(O)C4O)CC(C(=O)NC(C)C(=O)NC(CCC(=O)O)C(=O)N2C)N(C)C3=O)cc1` (centres unmarked) [NCGC00385295-01], the AC50 stood at 11.3 µM, the AUC stood at 30.6, the Efficacy worked out at 55 and the CC-v2 came out at 1.2.
The matching figures for `Cc1sc2c(c1C)C(c1ccc(Cl)cc1)=N[C@@H](CC(=O)NCCCCNC(=O)COc1cccc3c1C(=O)N(C1CCC(=O)NC1=O)C3=O)c1nnc(C)n1-2` (some centres unmarked) [NCGC00483928-02, dBET1]: 4.2 µM, 251.3, 215 and 1.1.
Molecule `COc1cc(/C=C/C(=O)NCCn2c(C(F)(F)F)cc3ccccc32)cc(OC)c1OC` [NCGC00484068-02, TG6-10-1] showed an AC50 of 23.7 µM, an AUC of 112.0, an Efficacy of 71 and a CC-v2 of 2.4.
Taken in the same sequence, the figures for `CC(C)(C)OC(=O)Nc1ccc(-c2cc(C(=O)NCCCCCCC(=O)NO)no2)cc1` [NCGC00250390-03, ISOX] were 2.4 µM, 354.4, 285 and 1.1.
Taken in the same sequence, the figures for `N[C@](CC1c2ccccc2Oc2ccccc21)(C(=O)O)[C@@H]1C[C@@H]1C(=O)O` [NCGC00025041-04, LY341495] were 9.4 µM, -3.6, 42 and 1.2.
The matching figures for `Cc1cc(C)n2ncc(C(=O)Nc3ccccc3Sc3ccccc3)c2n1` [NCGC00229712-01]: 89.1 µM, -8.8, 50 and 2.2.
As for `C=CC(=O)N1CCC(Oc2cc3c(Nc4ccc(Cl)c(Cl)c4F)ncnc3cc2OC)CC1` [NCGC00386427-01, Poziotinib], half-maximal activity (AC50) was put at 5.3 µM, the AUC turned out to be 59.0 and the CC-v2 was 1.2.
Molecule `CC1(C)CC[C@]2(C(=O)O)CC[C@]3(C)C(=CC[C@@H]4[C@@]5(C)C[C@@H](O)[C@H](O)C(CO)(CO)[C@@H]5CC[C@]43C)[C@@H]2[C@@H]1O` [NCGC00180693-03] registered an AC50 of 6.5 µM, an AUC of 62.7, an Efficacy of 132 and a CC-v2 of 1.1.
Taken in the same sequence, the figures for `COc1cc2c(cc1-c1c(C)noc1C)ncc1[nH]c(=O)n([C@H](C)c3ccccn3)c12` [NCGC00344588-08, I-BET151] were 0.7 µM, 49.7, 44 and 1.4.
The matching figures for `COc1ccc(N(C)c2nc(C)nc3ccccc23)cc1OCCCC(=O)NO` [NCGC00685385-01, SKLB-23bb]: 14.9 µM, 128.1, 141 and 1.1.
`NC(=O)[C@@H]1CCCN1C(=O)[C@H](Cc1cnc[nH]1)NC(=O)[C@@H]1CCC(=O)N1` [NCGC00166322-02, PROTIRELIN]: the AC50 turned out to be 23.7 µM, the AUC came out at 41.6 and the CC-v2 is 1.1.
Taken in the same sequence, the figures for `COc1ccc(-c2nc(N3CCOCC3)c3sc(CN(C)c4ncc(C(=O)NO)cn4)cc3n2)cn1` [NCGC00346692-08, CUDC-907] were 0.0106 µM, 832.4 and 1.3.
